Assay results: PubChem BioAssay AID1508624 (National Center for Advancing Translational Sciences (NCATS), 2021)
Out of some 48,000 compounds screened, about 120 (0.25%) were called active. Inconclusive results (about 4%) are left out. The call rests on the fitted dose curve; in most records, active means well fitted activation curve with a large enough effect; inconclusive means small, poorly fitted or top-dose-only effect, or another doubt; inactive means no such curve, though single readings can be large or run the other way. The list shows a part of the results.

Test: Primary qHTS for Identification of Small Molecule Activators of Huntingtin-Antisense Promoter Activity; further: nearly all actives have a fitted effect of over 55% in size
Conditions: HEK293 HTT-AS promoter firefly luciferase reporter (activity 0% = vehicle and -100% = no light), 24 h; series mostly up to 57.5 µM; activity change, positive = activation: at the top concentration
Method in brief: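 HEK293 Fluc reporter, 2,500 cells/well, 24 h pre-culture; cpds up to 57.5 uM final, 24 h 37 degrees C; Dual-Glo, 10 min RT; normalized vehicle = 0%, zero RLU = -100%.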

Activity change, positive = activation, inactive:
COc1cc2[nH]c(=O)n(CCCC(=O)N3CCN(c4cccc(C(F)(F)F)c4)CC3)c(=O)c2cc1OC -3.16%
COc1ccccc1N1CCN(C(=O)CN2C(=O)COc3ccc(S(=O)(=O)N4CCC(C)CC4)cc32)CC1 -18.7%
Cc1ccc(NC(=O)C2CCN(c3cc(C)nc4c(-c5ccc(Cl)cc5)c(C)nn34)CC2)c(C)c1 5.41%
COc1ccc(C(=O)CSc2c(C(C)C)cnc3c2c(=O)n(C)c(=O)n3C)cc1 -21.7%
CCOc1ccc(NC(=O)CSc2nc3c(oc4ccccc43)c(=O)n2CCOC)cc1 -15.5%
Cc1ccn2c(=O)cc(COc3ccc(NC(=O)c4ccccc4F)cc3)nc2c1 -4.32%
Cn1ncc2nc(SCC(=O)Nc3ccc(Br)cc3F)n(Cc3ccccc3)c(=O)c21 -29.5%
Cc1ccc(NC(=O)C(Cc2c[nH]c3ccccc23)NC(=O)OCC(C)C)cc1 (centres undefined) 0.362%
COc1ccc(/C=C\C(=O)NC2CC(=O)N(c3ccccc3)C2)cc1OC (centres undefined) -5.4%
COc1cc(NC(=O)c2nc(-c3ccncc3)no2)cc(OC)c1OC -9.47%
Cc1ccc(CN(C(=O)COc2c(C)cccc2C)C2CCS(=O)(=O)C2)o1 (centres undefined) -9.03%
COC(=O)c1nc2n(n1)C(c1cc(OC)ccc1OC)C(C(=O)Nc1ccc(C)cc1C)=C(C)N2 (centres undefined) -17.7%
Cc1ccc(Cl)cc1N1CCN(CCNC(=O)Nc2ccccc2Cl)CC1 -34.2%
CC(C)(C)C(=O)NCCc1csc2nc(-c3ccc(F)cc3)nn12 -17.5%
Cc1ccc2oc3c(c(=O)c2c1)C1(C(=O)N(C)c2ccccc21)N(CCCO)C3=O (centres undefined) -11.3%
COc1ccc2oc(-c3ccc(C)c(NC(=O)COc4cc(C)cc(C)c4)c3)nc2c1 4.32%
CSc1cccc(NC(=O)C2CCN(C(=O)c3cnn(-c4ccccc4)c3-n3cccc3)CC2)c1 -49.1%
CCc1ccc(-n2c(=O)c3c4c(sc3n(CC(=O)c3ccc(Cl)cc3)c2=O)CCC4)cc1 -9.17%
O=C(CCS(=O)(=O)c1cccc2nsnc12)Nc1ccc(F)cc1 -12.7%
Cc1ccc(Cl)cc1NC(=O)C(=O)NCC(c1cccnc1)N1CCc2ccccc21 (centres undefined) -29.1%
Nc1ccc(O)c(C(=O)O)c1 -6.48%
Cc1ccc(-c2cc(C(F)(F)F)c(C#N)c(SCC(=O)Nc3ccccc3)n2)cc1 -7.5%
CCOC(=O)C(C)NC(=O)c1c(C)oc2ncn(CC(C)C)c(=O)c12 (centres undefined) 9.81%
CCOC(=O)C1CCN(C(=O)c2ccc3c(=O)n4nc(Nc5cc(C)ccc5C)sc4nc3c2)CC1 -25.9%
Cc1ccc(CNC(=O)c2cc3c(=O)n(Cc4cccnc4)ccc3nc2C)cc1 -15%
CCOc1cccc(C2c3c(-c4cc(C)ccc4O)n[nH]c3C(=O)N2Cc2ccco2)c1 (centres undefined) -32.9%
COc1ccc(OC)c(CCNC(=O)c2csc3c2CCCCC3)c1 -38.4%
CCC(=O)C1=C(c2cccc(OC)c2)N(C(=O)CC)n2c(nnc2C2CCCCC2)S1 -14.5%
Cc1cccc(C)c1OCc1nc2c3c(-c4ccccc4)c(-c4ccccc4)oc3ncn2n1 -8.06%
COc1cccc(NC(=O)C2CCN(c3nn4cc(-c5ccc(F)cc5)nc4s3)CC2)c1 -3.09%
CCn1cc(C(=O)N2CCN(c3ccc(C(C)=O)cc3)CC2)c2cc(OC)c(OC)cc2c1=O -15.4%
Cc1ccc(NC(=O)Cn2c(=O)oc3cc(S(=O)(=O)NCc4ccccc4)ccc32)cc1 -31.2%
CCOc1ccc(CCNC(=O)CN2N=C(c3ccccc3)CCC2=O)cc1OCC -23.6%
c1cc(-c2sc(-c3ccncc3)c(-c3ccncc3)c2-c2ccncc2)ccn1 -9.3%
Cc1ccc2nc(N(Cc3cccnc3)C(=O)CCS(=O)(=O)c3ccccc3)sc2c1 15.7%
CC(=O)c1ccc(NC(=O)CSc2nc(-c3cccc(F)c3)nc3c2c(=O)n(C)c(=O)n3C)cc1 -11.4%
CN1C(C(=O)Nc2ccc(F)cc2F)=CC(c2ccc3c(c2)OCO3)=NS1(=O)=O -3.77%
Cc1cc(C)cc(NC(=O)CN2C(=O)c3ccccc3Sc3ncccc32)c1 -17.3%
CCCCN(CC)CCCNC(=O)c1cc2c(=O)[nH]c3ccccc3c2s1 -8.16%
Cc1cc(NC(=O)C2=C(O)c3ccccc3S(=O)(=O)N2C)no1 -12.8%
COc1ccc(CNC(=O)c2ccc3c(c2)nc2n3CCOC2)c(OC)c1 -6.93%
Cc1ccc(CN(Cc2ccco2)C(=O)COc2ccc(C(C)C)cc2)cc1 -22.3%
COc1ccc(N2CC(NC(=O)CCCc3ccccc3)CC2=O)cc1 (centres undefined) -9.54%
COC(=O)c1ccccc1NC(=O)Nc1nnc(N2CCC(C)CC2)s1 -0.404%
CCOc1cc(CNC(=O)NC2COc3ccc(OC)cc3C2)cc(OCC)c1OCC (centres undefined) -14.5%
Cc1cccc2c1-c1sc(C(=O)N(C)c3cccc(C(F)(F)F)c3)cc1CO2 -22.5%
Cc1csc2nc(COc3ccccc3NC(=O)c3ccc(C(C)(C)C)cc3)cc(=O)n12 2.6%
CCNC(=O)c1nn(-c2ccccc2C)nc1CO 4.81%
CC(=O)C1=C(c2ccc(C)c(C)c2)N(C(C)=O)n2c(nnc2-c2ccc(Cl)cc2)S1 -2.91%
Cc1cccc(CNC(=O)CCCn2c(=O)c3cccn3c3ccc(F)cc32)c1 -20.6%
O=C(Cn1c(=O)n(-c2ccccc2Cl)c(=O)c2sc3ccccc3c21)NC1CCCCC1 -12.6%
Cc1ccc(CN2CCN(CC(=O)Nc3ccc(C)c(C)c3)S2(=O)=O)cc1 -22.1%
Cc1ccccc1-n1nc(CO)c(C(=O)NCc2cccs2)n1 -32.9%
N#Cc1cccc(NC(=O)C2CCN(S(=O)(=O)c3ccc4[nH]c(=O)ccc4c3)CC2)c1 -3.29%
Cc1ccccc1OC(=O)CSc1nnc(-c2ccc(F)cc2)o1 -1.94%
Cc1c(NC(=O)c2nc3ccccc3nc2N2CCCCC2)cccc1[N+](=O)[O-] -16.7%
COC(=O)N1CCN(Cc2cccc(NC(=O)Nc3ccc(C)nc3)c2F)CC1 -24.4%
Cc1c(C)c2c(c(C)c1OC(=O)c1cccnc1)CC[C@@](C)(CCC[C@H](C)CCC[C@H](C)CCCC(C)C)O2 -4.22%
COc1ccccc1C(=O)NCc1nnnn1-c1ccc(C)c(C)c1 -9.99%
COc1ccc(-c2csc(-c3nc(-c4ccc(Br)s4)cs3)n2)cc1F -14.4%
CCC1CCCCN1CCCNC(=O)c1c(O)nc2ccccn2c1=O (centres undefined) -2.85%
CCCC1=Nc2cc(C(=O)NCCc3ccc(OCC)cc3)ccc2Sc2ccccc21 -21.1%
COc1cccc(CN2C(=O)c3ccccc3Sc3ccc(C(=O)NCCc4ccc(C)cc4)cc32)c1 -16.7%
O=C(NCc1ccc2c(c1)OCO2)c1ccc2c(c1)N(Cc1cccc(Cl)c1)C(=O)c1ccccc1S2=O (centres undefined) -12.1%
Cc1c(Cl)cccc1NC(=O)C1CCCN(c2nnc(-n3c(C)ccc3C)s2)C1 (centres undefined) -8.89%
CCN(CCCNC(=O)c1ccc(Sc2ccc(F)cc2)c(NC(C)=O)c1)c1ccccc1 -25.4%
O=C(NCC(c1ccc2c(c1)OCO2)N1CCN(c2ccccc2)CC1)C(=O)Nc1cccc(F)c1 (centres undefined) -8.18%
CCN(CC)C(=O)CSc1nc2cc3c(cc2c(=O)n1CCCCCC(=O)NCc1ccc(OC)cc1)OCO3 -6.06%
COc1ccc(CNC(=O)Cn2c(=O)nc(-c3ccccc3F)c3cc(Cl)ccc32)cc1 -3.1%
Cc1ccc(-c2nc3c(C)cccn3c2Nc2ccccc2C)s1 -10.5%
Cc1ccc(F)cc1NC(=O)Cn1c(=O)nc(-c2ccccc2F)c2cc(Cl)ccc21 9.98%
COc1ccc(C2=C(C)C(=O)N(Cc3ccc(C(=O)Nc4cccc(F)c4)cc3)S2(=O)=O)cc1 -41%
CC1CCCN(c2nc3c(S(=O)(=O)c4ccc(C(C)C)cc4)nnn3c3ccsc23)C1 (centres undefined) -8.69%
CCCCCn1c(=O)[nH]c2cc(C(=O)N3CCN(c4cc(Cl)ccc4C)CC3)ccc2c1=O -15.5%
CCOc1ccc(CCn2c3c(c(=O)[nH]c2=O)C(NC(=O)c2ccccc2)(C(F)(F)F)C(=O)N3)cc1OCC (centres undefined) 2.64%
CCOC(=O)N1CCC(NC(=O)c2ccc3c(c2)N(Cc2cc(C)ccc2C)C(=O)c2ccccc2S3(=O)=O)CC1 -23.4%
CCOC(=O)c1c(S(=O)(=O)NCC(=O)Nc2cc(C)ccc2OC)c(C)n(C)c1C -10.5%
Cc1ccc(C(=O)OCc2cc(=O)n3nc(-c4cccs4)sc3n2)cc1 3.15%
COc1ccc(NC(=O)CSc2nc3ccccc3nc2Cc2ccc(C)cc2)cc1Cl -8.29%
O=C(Cn1cc(SCc2ccccc2F)c2ccccc21)N1CCCCCC1 -4.83%
COc1ccccc1NC(=O)Cn1c(=O)n(Cc2cccs2)c(=O)c2cccnc21 -36.1%
CCN(CC)c1ccc2cc(-c3nc(-c4ccc(Cl)cc4Cl)cs3)c(=O)oc2c1 8.33%
CCOC(=O)c1ccc(Nc2nc3nonc3nc2Nc2cccc(C)c2C)cc1 -87.4%
Cc1nc(-c2ccccc2)sc1-c1ccc(SCC(=O)NCc2ccccc2)nn1 -4.65%
Cc1cccc(NC(=O)Cn2cc(C(=O)C3CCCCC3)c3ccccc32)c1C -58.4%
COc1ccccc1C(=O)N1CCCCC1CCN1CCOCC1 (centres undefined) -3.31%
O=C(Nc1ccc(-c2nc3cc(NC(=O)c4ccccc4F)ccc3o2)cc1)c1ccccc1F -16.8%
N#Cc1ccccc1NC(=O)CSc1ncn[nH]1 -2.18%
CCCCCCCC/C=C\CCCCCCCC(=O)NCc1ccc(O)c(OC)c1 -9.49%
CCOc1ccc(C(=O)c2cn(CC(=O)Nc3ccc4c(c3)OCCO4)c3ccc(OC)cc3c2=O)cc1 -18.6%
Cc1ccc(CNC(=O)C(=O)NCC(c2cccnc2)N2CCN(c3ccc(F)cc3)CC2)cc1 (centres undefined) -50.3%
O=C(NCc1ccccc1)c1cc2sccc2n1Cc1ccc(F)cc1 -19.6%
Cn1c(=O)c2c(nc(Oc3ccc(F)cc3)n2Cc2ccc(F)cc2)n(C)c1=O -6.63%
COc1ccccc1NC(=O)c1sc2nc(C)c(C(=O)Nc3ccc(C)cc3C)c(-c3ccc(Br)cc3)c2c1N 6.63%
